# Test results taken from the supplement of paper PMC9446081.
# Hit rate of the full screen: of about 39,000 compounds, about 220 (0.56%) showed activity. This is one part of the list.
# System: Escherichia coli K-12 BW25113
# Test: relative growth (OD600 normalised to plate interquartile mean) (fraction); higher = less growth inhibition, active = 0.2 or less
# Conditions: 50 µM; LB; incubation time: overnight (16-24 h)
# 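Further: static incubation at 37 °C against the wild-type strain, values averaged over two biological replicates.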
row,Structure (SMILES),relative growth
1,C[C@@H]1CCCCO[C@H](CN(C)C(=O)c2ccccc2)[C@@H](C)CN([C@H](C)CO)C(=O)c2cc(NS(=O)(=O)c3ccc(Cl)cc3)ccc2O1,inactive: 0.986
2,O=[N+]([O-])c1ccc(O)c2ncccc12,active: 0.0542
3,C[C@@H]1CCCCO[C@H](CN(C)C(=O)CCC(F)(F)F)[C@@H](C)CN([C@H](C)CO)C(=O)c2cc(NC(=O)CCC(F)(F)F)ccc2O1,inactive: 0.954
4,C[C@@H]1CN([C@@H](C)CO)C(=O)Cc2cc(NC(=O)CCC(F)(F)F)ccc2O[C@@H]1CN(C)C(=O)Nc1cccc2ccccc12,inactive: 0.995
5,CCN(CC)CC(=O)Nc1c(C)cccc1C.Cl,inactive: 1.03
6,O=C(NCC1CC1)c1cc2c(c(-c3cccc(-c4ccccc4F)c3)n1)[C@@H](CCO)N(C(=O)CC1CC1)C2,inactive: 1.04
7,C[C@H](CO)N1C[C@H](C)[C@H](CN(C)C(=O)Nc2ccc(C(F)(F)F)cc2)OCCCC[C@H](C)Oc2ccc(NC(=O)c3ccncc3)cc2C1=O,inactive: 0.97
8,C[C@@H]1CCCCO[C@@H](CN(C)Cc2ccc(C(F)(F)F)cc2)[C@@H](C)CN([C@@H](C)CO)C(=O)c2cc(NC(=O)Nc3ccc4c(c3)OCO4)ccc2O1,inactive: 0.994
9,C[C@H](CO)N1C[C@H](C)[C@H](CN(C)C(=O)Nc2ccc(C(F)(F)F)cc2)Oc2c(NC(=O)Nc3ccc4c(c3)OCO4)cccc2C1=O,inactive: 0.986
10,Cc1cc(S(C)(=O)=O)c(S(C)(=O)=O)cc1C(=O)NC(=N)N,inactive: 1.02
11,O=C(C[C@H]1CC[C@H]2[C@@H](COC[C@@H](O)CN2C(=O)c2ccccc2F)O1)N1CCN(c2ccccc2)CC1,inactive: 0.969
12,C[C@H]1CN([C@@H](C)CO)C(=O)Cc2cc(NC(=O)Cc3ccccc3)ccc2O[C@H]1CN(C)S(=O)(=O)c1ccccc1,inactive: 1.01
13,C[C@H](CO)N1C[C@H](C)[C@@H](CN(C)S(=O)(=O)c2ccccc2)Oc2ncc(C#CCN(C)C)cc2C1=O,inactive: 1
14,Clc1ccc(/N=C/c2ccc(Br)o2)cc1Cl,inactive: 1.01
15,COc1ccc2c3c([nH]c2c1)[C@H](CO)N(C[C@]13CCN(CC1)C(=O)c1ccncc1)C(=O)c1ccncc1,inactive: 1.01
16,CC(C)NC(=O)Nc1ccc2c(c1)C(=O)N([C@@H](C)CO)C[C@H](C)[C@@H](CN(C)C(=O)C1CCCCC1)OCCCC[C@H](C)O2,inactive: 1.01
17,C[C@H]1CN([C@@H](C)CO)C(=O)Cc2cc(NC(=O)Cc3cn(C)c4ccccc34)ccc2O[C@@H]1CN(C)Cc1ccc(Oc2ccccc2)cc1,inactive: 1.02
18,CCCNC(=O)N1C[C@H](O)COC[C@H]2O[C@H](CC(=O)N3CCOCC3)CC[C@@H]21,inactive: 1
19,Cc1c(-c2ccc(-c3ccc(Cl)c(Cl)c3)o2)nc(-c2ccccc2)c2c1CO[Si]2(C(C)C)C(C)C,inactive: 1.01

row,Structure (SMILES),relative growth
1,C[C@H](CO)N1C[C@H](C)[C@@H](CN(C)Cc2ccc(C(F)(F)F)cc2)Oc2ccc(NC(=O)CCC(F)(F)F)cc2C1=O,inactive: 1.01
2,C[C@@H]1CN([C@H](C)CO)C(=O)c2cc(NC(=O)Cc3ccccc3)ccc2O[C@@H]1CN(C)S(=O)(=O)c1ccccc1,inactive: 0.988
3,Cc1cc(C(=O)Nc2cccc3c2O[C@H](CN(C)S(=O)(=O)c2ccc(Cl)cc2)[C@H](C)CN([C@H](C)CO)C3=O)n(C)n1,inactive: 1
4,C[C@@H]1CN([C@H](C)CO)C(=O)Cc2cc(NC(=O)Nc3ccc(C(F)(F)F)cc3)ccc2O[C@@H]1CN(C)C(=O)Nc1ccc(F)cc1,inactive: 1.01
5,COc1ccc(S(=O)(=O)N(C)C[C@@H]2Oc3c(NC(=O)Nc4cccc5ccccc45)cccc3C(=O)N([C@H](C)CO)C[C@@H]2C)cc1,inactive: 1.06
6,Cc1noc(C)c1NC(=O)N(C)C[C@@H]1OCCCC[C@@H](C)Oc2ccc(NC(=O)Nc3ccc(C(F)(F)F)cc3)cc2C(=O)N([C@H](C)CO)C[C@@H]1C,inactive: 1
7,Cc1ccc(S(=O)(=O)Nc2ccc3c(c2)C(=O)N([C@@H](C)CO)C[C@H](C)[C@@H](CN(C)Cc2ccc(Cl)c(Cl)c2)OCCCC[C@H](C)O3)cc1,inactive: 0.971
8,CCCCC/C=C\C/C=C\C/C=C\CCCCC(=O)O,inactive: 0.823
9,C[C@H](CO)N1C[C@H](C)[C@@H](CN(C)Cc2ccc(Oc3ccccc3)cc2)Oc2ccc(NC(=O)Cn3cnnn3)cc2CC1=O,inactive: 0.977
10,C[C@@H]1CN([C@H](C)CO)C(=O)c2cc(NC(=O)Nc3ccc(C(F)(F)F)cc3)ccc2O[C@@H](C)CCCCO[C@@H]1CN(C)C(=O)NC1CCCCC1,inactive: 1.04
11,Cc1noc(C)c1NC(=O)Nc1ccc2c(c1)C(=O)N([C@@H](C)CO)C[C@H](C)[C@H](CN(C)Cc1ccc(C(F)(F)F)cc1)OCCCC[C@@H](C)O2,inactive: 0.981
12,C[C@H](CO)N1C[C@H](C)[C@H](CN(C)S(C)(=O)=O)Oc2ccc(NC(=O)Cc3cn(C)c4ccccc34)cc2C1=O,inactive: 0.978
13,C=CC[C@@H](CC(=O)N(CCO)Cc1ccccc1)C(=O)N[C@H](COC(=O)[C@@H](CC=C)Cc1ccc(F)cc1)Cc1c[nH]c2ccccc12,inactive: 1.03
14,Cc1ccc(S(=O)(=O)Nc2ccc3c(c2)C(=O)N([C@@H](C)CO)C[C@@H](C)[C@H](CN(C)C(=O)NC2CCCCC2)OCCCC[C@@H](C)O3)cc1,inactive: 1.05
15,C[C@@H]1CN([C@@H](C)CO)C(=O)c2cc(NC(=O)Nc3ccc(F)cc3)ccc2O[C@@H](C)CCCCO[C@@H]1CN(C)C(=O)c1ccccc1,inactive: 1.04
16,C[C@H](NC(=O)C[C@@H]1C=C[C@H](NC(=O)CN2CCOCC2)[C@H](CO)O1)c1ccccc1,inactive: 1.02
17,CC(C)(C)C(=O)N[C@@H]1CC(=O)N(C2CC2)C1,inactive: 1
18,CC(=O)[C@@]12O[C@]3(COC[C@H](c4ccccc4)N3C1=O)[C@@H]1C(=O)N(C)C(=O)[C@@H]12,inactive: 0.964
19,COc1ccc(S(=O)(=O)N(C)C[C@@H]2Oc3c(NC(=O)Nc4cccc5ccccc45)cccc3C(=O)N([C@@H](C)CO)C[C@H]2C)cc1F,inactive: 0.985
